{
  "source": "the DeepSol protein solubility set",
  "assay": "soluble on expression in E. coli; label from the status in PepcDB or PDB records",
  "data": [
    {"sequence": "MKISVITVTYNNAEGLEKTLSSLSILKIKPFEIIIVDGGSTDGTNRVISRFTSMNITHVYEKDEGIYDAMNKGRMLAKGDLIHYLNAGDSVIGDIYKNIKEPCLIKVGLFENDKLLGFSSITHSNTGYCHQGVIFPKNHSEYDLRYKICADYKLIQEVFPEGLRSLSLITSGYVKYDMGGVSSKKRILRDKELAKIMFEKNKKNLIKFIPISIIKILFPERLRRVLRKMQYICLTLFFMKNSSPYDNE", "values": [
      {"measurement": "soluble on expression in E. coli", "result": "not soluble"}
    ]}
  ]
}
